Source: the BET-seq Pho4 binding data (Le et al. 2018)
Some of the results follow. Values were computed here from the reads of four pooled replicates and scatter widely.

What follows are sequences tested against T1, Pho4 (S. cerevisiae) (UniProt P07270) (assay: relative binding free energy (BET-seq); higher = weaker binding). Details: reference: library average.
T1 sequence: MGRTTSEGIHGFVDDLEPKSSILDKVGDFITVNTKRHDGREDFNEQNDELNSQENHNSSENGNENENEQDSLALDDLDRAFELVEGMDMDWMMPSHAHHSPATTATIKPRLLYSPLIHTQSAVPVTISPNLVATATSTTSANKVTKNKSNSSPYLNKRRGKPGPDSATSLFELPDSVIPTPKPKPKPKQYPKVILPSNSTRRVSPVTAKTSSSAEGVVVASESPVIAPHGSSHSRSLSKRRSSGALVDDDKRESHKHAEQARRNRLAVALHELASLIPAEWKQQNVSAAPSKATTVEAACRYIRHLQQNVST

Q: Which “relative binding free energy” value does the source give for TTATTCACGTGACTTT here?
A: 0.23 kcal/mol

Q: With CTTAACACGTGGTGAG as the sequence, how does the “relative binding free energy” value read?
A: 0.01 kcal/mol

Q: TGGAGCACGTGTAACG was tested. Which “relative binding free energy” value did it give?
A: 0.03 kcal/mol

Q: Which “relative binding free energy” value does the source give for GTATCCACGTGATAGG here?
A: 0.23 kcal/mol

Q: Which “relative binding free energy” value does the source give for TGTTACACGTGTTGGA here?
A: 0.12 kcal/mol

Q: CTTGCCACGTGGTAGG was tested. Which “relative binding free energy” value did it give?
A: -0.17 kcal/mol

Q: Which “relative binding free energy” value does the source give for GGAGTCACGTGTGAGG here?
A: 0.2 kcal/mol

Q: Which “relative binding free energy” value does the source give for ATGAGCACGTGAGGGG here?
A: 0.12 kcal/mol

Q: With GGTAACACGTGGCTGA as the sequence, how does the “relative binding free energy” value read?
A: 0.02 kcal/mol

Q: For TGTGTCACGTGGTCAG, which “relative binding free energy” value is on record?
A: -0.17 kcal/mol

Q: How did the “relative binding free energy” value turn out when GTCGTCACGTGGTTTG was run?
A: 0 kcal/mol

Q: How did the “relative binding free energy” value turn out when TTTTACACGTGCTTTG was run?
A: 0.01 kcal/mol

Q: For TTAGTCACGTGTGTCA, which “relative binding free energy” value is on record?
A: 0 kcal/mol

Q: TTAATCACGTGTCAGG was tested. Which “relative binding free energy” value did it give?
A: 0.16 kcal/mol

Q: For TGCTGCACGTGTTTGT, which “relative binding free energy” value is on record?
A: 0.01 kcal/mol

Q: For ATCTACACGTGGTCGT, which “relative binding free energy” value is on record?
A: 0.27 kcal/mol

Q: With TACTGCACGTGTATTT as the sequence, how does the “relative binding free energy” value read?
A: 0.04 kcal/mol

Q: How did the “relative binding free energy” value turn out when AATATCACGTGTAGTT was run?
A: 0.14 kcal/mol

Q: How did the “relative binding free energy” value turn out when GTGTTCACGTGGAAAA was run?
A: 0.54 kcal/mol

Q: For GCGGGCACGTGGTTTA, which “relative binding free energy” value is on record?
A: -0.06 kcal/mol

Q: How did the “relative binding free energy” value turn out when AGGCCCACGTGTGTGT was run?
A: -0.12 kcal/mol

Q: Which “relative binding free energy” value does the source give for GCGCACACGTGGGTGT here?
A: -0.22 kcal/mol

Q: With ATGTGCACGTGCGGAT as the sequence, how does the “relative binding free energy” value read?
A: -0.08 kcal/mol

Q: With CTGTGCACGTGGTGTG as the sequence, how does the “relative binding free energy” value read?
A: -0.13 kcal/mol

Q: GGCGTCACGTGGGCGG was tested. Which “relative binding free energy” value did it give?
A: -0.05 kcal/mol

Q: With TTGGGCACGTGGACTG as the sequence, how does the “relative binding free energy” value read?
A: -0.14 kcal/mol

Q: For GGTATCACGTGTAGTT, which “relative binding free energy” value is on record?
A: 0.24 kcal/mol

Q: For TTTTGCACGTGGGATT, which “relative binding free energy” value is on record?
A: -0.02 kcal/mol

Q: How did the “relative binding free energy” value turn out when CTGTTCACGTGGTATG was run?
A: 0.14 kcal/mol

Q: Which “relative binding free energy” value does the source give for GGGCGCACGTGGGTAG here?
A: -0.28 kcal/mol

Q: How did the “relative binding free energy” value turn out when CTTTTCACGTGTGTAA was run?
A: 0.43 kcal/mol

Q: How did the “relative binding free energy” value turn out when CGTAACACGTGGAGGT was run?
A: -0.07 kcal/mol

Q: With CTGTGCACGTGAGAGG as the sequence, how does the “relative binding free energy” value read?
A: 0.24 kcal/mol

Q: Which “relative binding free energy” value does the source give for ATTCTCACGTGGGTAG here?
A: 0 kcal/mol

Q: Which “relative binding free energy” value does the source give for GATGGCACGTGGCTGT here?
A: -0.1 kcal/mol

Q: How did the “relative binding free energy” value turn out when TGGCTCACGTGGTATT was run?
A: 0.12 kcal/mol

Q: How did the “relative binding free energy” value turn out when GTACTCACGTGAGTTT was run?
A: 0.21 kcal/mol

Q: For CGATTCACGTGTGAGG, which “relative binding free energy” value is on record?
A: 0.22 kcal/mol

Q: For CTGGTCACGTGCGTGT, which “relative binding free energy” value is on record?
A: -0.06 kcal/mol

Q: ATGTGCACGTGGCGCG was tested. Which “relative binding free energy” value did it give?
A: -0.18 kcal/mol

Q: With TGTTGCACGTGGAAAA as the sequence, how does the “relative binding free energy” value read?
A: 0.03 kcal/mol

Q: For GTCTTCACGTGTCTTT, which “relative binding free energy” value is on record?
A: 0.49 kcal/mol

Q: For ATGATCACGTGGGGAG, which “relative binding free energy” value is on record?
A: -0.09 kcal/mol

Q: With TGTGTCACGTGATTGG as the sequence, how does the “relative binding free energy” value read?
A: 0.21 kcal/mol

Q: TTAGTCACGTGGAGCA was tested. Which “relative binding free energy” value did it give?
A: 0.09 kcal/mol

Q: TAATTCACGTGCTGGG was tested. Which “relative binding free energy” value did it give?
A: 0.24 kcal/mol

Q: For AGGGTCACGTGCATTA, which “relative binding free energy” value is on record?
A: 0.1 kcal/mol

Q: With GGTTTCACGTGGTCCG as the sequence, how does the “relative binding free energy” value read?
A: 0.28 kcal/mol

Q: With AATAGCACGTGTGTAA as the sequence, how does the “relative binding free energy” value read?
A: -0.12 kcal/mol

Q: Which “relative binding free energy” value does the source give for GTTGGCACGTGGGATG here?
A: -0.12 kcal/mol

Q: Which “relative binding free energy” value does the source give for GTTGCCACGTGGTTAG here?
A: -0.09 kcal/mol

Q: For CGGTTCACGTGTTATC, which “relative binding free energy” value is on record?
A: 0.41 kcal/mol

Q: With CAGGGCACGTGGTTGG as the sequence, how does the “relative binding free energy” value read?
A: -0.17 kcal/mol

Q: TGGTGCACGTGATGCT was tested. Which “relative binding free energy” value did it give?
A: 0.03 kcal/mol

Q: With GTTATCACGTGATGGG as the sequence, how does the “relative binding free energy” value read?
A: 0.23 kcal/mol

Q: Which “relative binding free energy” value does the source give for TATTGCACGTGAAGTA here?
A: 0.25 kcal/mol

Q: With GGGGTCACGTGCCTTG as the sequence, how does the “relative binding free energy” value read?
A: 0.12 kcal/mol

Q: For TCTGGCACGTGAAAGG, which “relative binding free energy” value is on record?
A: 0.16 kcal/mol

Q: Which “relative binding free energy” value does the source give for ATGTTCACGTGTCAGA here?
A: 0.26 kcal/mol

Q: GGGGGCACGTGTGTTC was tested. Which “relative binding free energy” value did it give?
A: -0.01 kcal/mol

Q: With AAGTTCACGTGGGCAG as the sequence, how does the “relative binding free energy” value read?
A: 0.1 kcal/mol

Q: How did the “relative binding free energy” value turn out when GTAAGCACGTGGATGT was run?
A: 0.03 kcal/mol

Q: For TAGGGCACGTGTGCCG, which “relative binding free energy” value is on record?
A: -0.14 kcal/mol
